{
  "source": "PubChem BioAssay AID686979",
  "about": "(National Center for Advancing Translational Sciences (NCATS), 2013)",
  "note": "Screen size: about 420,000 compounds; about 50,000 (12%) were called active. Inconclusive results, whose numbers are uncertain, are shown with a selection of clear calls. Calls come from the whole dose curve; as a rule, active = well fitted inhibition curve with a large enough effect; inconclusive = small, poorly fitted or top-dose-only effect; inactive = flat fitted curve, though single readings scatter. No potency is given beside an inconclusive call; the fits are too rough. % is set by controls: 0 for no effect and ±100 for the full control effect; potency is the fitted concentration of half-maximal effect; tags give direction and shape of the fitted curve.",
  "data": [
    {"assay": "qHTS for Inhibitors of human tyrosyl-DNA phosphodiesterase 1 (TDP1): qHTS in cells in presence of CPT; note: nearly all actives have a fitted effect of over 55% in size", "settings": "chicken DT40 Tdp1-/-;hTDP1 cells + 20 nM CPT, ATP luminescence, 48 h; activity change, negative = growth inhibition: at 46.2 µM (top of the series)", "procedure,_shortened": "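Chicken DT40 Tdp1-/- cells stably complemented with human TDP1 were seeded at 400 cells/well in medium containing 20 nM camptothecin, exposed to pin-transferred compounds, and grown at 37 °C for at least 48 hr. Viability was read as ATP luminescence.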", "values": [
      {"smiles": "COc1cccc(OC)c1C(=O)Nc1ccc(Br)c(C(=O)c2ccccc2)c1", "Potency": "inconclusive [inhibitor, single point]"},
      {"smiles": "O=C(CCCCCn1c(SCc2ccncc2)nc2ccccc2c1=O)NCc1ccco1", "Potency": "inconclusive [inhibitor, single point]"},
      {"smiles": "CC(=O)Oc1ccc(/C=N\\NC(=O)c2cc3c(ccc4ccccc43)o2)cc1", "Potency": "inconclusive [inhibitor, single point]"},
      {"smiles": "Cc1ccc(CN2CCN(Cc3cn[nH]c3C3CCCCC3)CC2CCO)cc1", "note": "(centres undefined)", "activity change, negative = growth inhibition": "inactive: -17.3%"},
      {"smiles": "CN(C(=O)c1ccccc1)c1ccccc1C(=O)NCCc1ccccc1", "Potency": "inconclusive [inhibitor, single point]"},
      {"smiles": "CN(C)S(=O)(=O)c1cccc(NC(=O)c2n[nH]c(=O)c3ccccc23)c1", "activity change, negative = growth inhibition": "inconclusive: -34.6% [inhibitor]"},
      {"smiles": "Cc1ccc(-n2c(C)cc(C(=O)CN3CCOCC3)c2C)cc1C", "Potency": "active: 20.6 µM"},
      {"smiles": "COc1ccc(-c2nc3sc(CCNC(=O)c4cc(Cl)ccc4OC)c(C)n3n2)cc1", "Potency": "active: 16.4 µM"},
      {"smiles": "Cc1ccc(C)c(Nc2nc(-c3cccnc3)cs2)c1", "Potency": "inconclusive [inhibitor, partial curve]"},
      {"smiles": "CC(C)COC(=O)c1ccc2c(c1O)C(=O)c1ccccc1C2=O", "Potency": "inconclusive [inhibitor, single point]"},
      {"smiles": "O=C(Cc1ccccc1)Nc1ccccc1N1CCN(c2ccccc2)CC1", "Potency": "inconclusive [inhibitor, single point]"},
      {"smiles": "COc1cc(SC)ccc1C(=O)N(CC(=O)Nc1ccccc1Br)Cc1ccco1", "Potency": "inconclusive [inhibitor, partial curve]"},
      {"smiles": "CC(=O)c1ccc(Sc2nnc(C)s2)c([N+](=O)[O-])c1", "activity change, negative = growth inhibition": "inactive: -19.9%"},
      {"smiles": "CCOc1ccccc1-n1c(SCC(=O)N(CC)CC)nnc1-c1ccccn1", "Potency": "inconclusive [inhibitor, single point]"},
      {"smiles": "Cc1ccccc1N(C(=O)c1csnn1)C(C(=O)NC(C)(C)C)c1cccs1", "note": "(centres undefined)", "Potency": "inconclusive [inhibitor, single point]"},
      {"smiles": "Cc1ccc(C(C)(C)C)c(OCC(=O)NCCc2nc3ccccc3[nH]2)c1", "Potency": "active: 13 µM"},
      {"smiles": "Cc1sc(NC(=O)Cn2nc(C(F)(F)F)cc2C)c(C(=O)OC(C)C)c1C", "Potency": "inconclusive [inhibitor, single point]"},
      {"smiles": "COc1ccc(-c2nn(C)c(=O)c3ccccc23)cc1NC(=O)COc1ccc(C)cc1", "Potency": "active: 23.1 µM"},
      {"smiles": "O=C(NC1CC1)c1cccc2c1C(=O)c1ccc(N3CCC(Cc4ccccc4)CC3)cc1S2(=O)=O", "Potency": "active: 23.1 µM"},
      {"smiles": "CCCc1nc(SCC(=O)Nc2cc(C)on2)c2ccccc2n1", "Potency": "inconclusive [inhibitor, partial curve]"},
      {"smiles": "COc1cccc(NC(=O)CCN2CCC(C(N)=O)CC2)c1", "activity change, negative = growth inhibition": "inactive: 2.48%"},
      {"smiles": "O=C1CC(c2ccc(F)cc2)c2cc3c(cc2N1)CCC3", "note": "(centres undefined)", "Potency": "inconclusive [inhibitor, single point]"},
      {"smiles": "CCOC(=O)c1cnc(SCc2nc(N)nc(Nc3ccc(OC)cc3)n2)nc1N", "Potency": "inconclusive [inhibitor, partial curve, poor fit]"},
      {"smiles": "COc1cc(OC)cc(C(=O)NCC(=O)NCCN2C(=O)S/C(=C\\c3ccccc3Cl)C2=O)c1", "Potency": "inconclusive [inhibitor, single point]"},
      {"smiles": "CN(Cc1ccccc1)S(=O)(=O)c1ccc(F)c(C(=O)Nc2cccc(Cl)c2Cl)c1", "activity change, negative = growth inhibition": "inconclusive: -31.3% [inhibitor]"},
      {"smiles": "CC(C)CN(C(=O)COC(=O)Cc1ccc(Cl)cc1)c1c(N)n(Cc2ccccc2)c(=O)[nH]c1=O", "Potency": "inconclusive [inhibitor, partial curve]"},
      {"smiles": "CC(O)(c1ccc(F)c(F)c1)c1nc(-c2cnc3ccccc3c2)cs1", "note": "(centres undefined)", "Potency": "active: 16.4 µM"},
      {"smiles": "O=C(Nc1ccc(Cl)cc1)c1csc([C@@H]2O[C@H](CO)[C@@H](O)[C@H]2O)n1", "Potency": "inconclusive [inhibitor, partial curve]"},
      {"smiles": "CC(C)OCc1c(C(=O)Nc2nccs2)oc2ccccc12", "Potency": "inconclusive [inhibitor, partial curve]"},
      {"smiles": "COc1ccc2cc3cc(C(=O)NCc4ccc5c(c4)OCO5)oc3nc2c1", "activity change, negative = growth inhibition": "inactive: -6.19%"},
      {"smiles": "Cc1ccc(S(=O)(=O)SCCCSS(=O)(=O)c2ccc(C)cc2)cc1", "Potency": "active: 18.4 µM"},
      {"smiles": "O=C(NCc1cccs1)c1nc2c(nnn2Cc2ccccc2Cl)c(=O)[nH]1", "Potency": "active: 4.11 µM"},
      {"smiles": "O=C(Cc1ccc(Cl)cc1)NC(=S)Nc1ccccc1O", "Potency": "inconclusive [inhibitor, single point]"},
      {"smiles": "COc1c(C)cc(C(=O)C2CCCN(C(=O)c3snnc3C)C2)cc1C", "note": "(centres undefined)", "activity change, negative = growth inhibition": "inactive: 18.4%"},
      {"smiles": "CCOc1ccc(S(=O)(=O)Nc2cccc(OC)c2)cc1", "Potency": "inconclusive [inhibitor, partial curve]"},
      {"smiles": "OCCC1CN(Cc2cnc(-c3cccc4ccccc34)nc2)CCN1C1CCCCC1", "note": "(centres undefined)", "Potency": "active: 23.1 µM"},
      {"smiles": "COc1ccc(CN2CCOc3ccc(C(O)c4cccnc4)cc3C2)cc1", "note": "(centres undefined)", "activity change, negative = growth inhibition": "inactive: -4.63%"},
      {"smiles": "O=C(CN1CCN(CC(=O)Nc2ccccc2Cl)CC1)Nc1ccc2c(c1)OCCO2", "Potency": "inconclusive [inhibitor, single point]"},
      {"smiles": "Cc1ccc(N2CC(C(=O)N3CCC(C(=O)NCCCOC(C)C)CC3)CC2=O)cc1", "note": "(centres undefined)", "activity change, negative = growth inhibition": "inactive: 0.609%"},
      {"smiles": "CCN(CC)c1cc2c(cc1F)c(=O)c(S(=O)(=O)c1cc(C)ccc1C)cn2Cc1ccccc1", "Potency": "inconclusive [inhibitor, single point]"},
      {"smiles": "Cc1c(/C=N\\NC(=O)c2csc3ccccc23)cnn1C", "Potency": "inconclusive [inhibitor, single point]"},
      {"smiles": "COc1ccc(C(C)(O)c2nc(-c3cccc(C(=O)O)c3)cs2)cc1", "note": "(centres undefined)", "activity change, negative = growth inhibition": "inactive: 13.8%"},
      {"smiles": "COc1cc(/C=N/Nc2nc(Nc3ccc(C)cc3)nc(-n3nc(C)cc3C)n2)cc(OC)c1OC", "Potency": "active: 4.61 µM"},
      {"smiles": "COc1ccc(O)c(/C=N/NC(=O)c2c(C)nnn2-c2nonc2N)c1", "Potency": "active: 18.4 µM"},
      {"smiles": "CCOC(=O)c1c(NC(=O)c2ccc(S(=O)(=O)N(CCOC)CCOC)cc2)sc2c1CC(C)(C)NC2(C)C", "Potency": "inconclusive [inhibitor, single point]"},
      {"smiles": "Cn1c(N2CCCC2)nc2c1c(=O)n(Cc1ccc(Cl)cc1)c(=O)n2C", "Potency": "inconclusive [inhibitor, single point]"},
      {"smiles": "Cc1cc(OC(=O)c2ccco2)c(Sc2ccccc2[N+](=O)[O-])c(=O)o1", "Potency": "inconclusive [inhibitor, single point]"},
      {"smiles": "Cc1c(/C=C(\\C#N)C(=O)Nc2cccc(Cl)c2)c2ccccc2n1Cc1ccccc1Cl", "Potency": "inconclusive [inhibitor, partial curve]"},
      {"smiles": "COc1ccc(/C=c2/sc3n(c2=O)NC2(c4ccccc4)N(C)C(=O)N(C)C2(c2ccccc2)N=3)cc1", "note": "(centres undefined)", "Potency": "inconclusive [inhibitor, single point]"},
      {"smiles": "CCN(CC)CCCNC(=O)/C=C/C(=O)O", "Potency": "active: 18.4 µM"},
      {"smiles": "CCCC(=O)N1CCN(c2ccc(NC(=S)NC(=O)CC)cc2)CC1", "activity change, negative = growth inhibition": "inactive: -19.1%"},
      {"smiles": "Cc1c(C(=O)NCc2ccc3c(c2)OCO3)sc(=O)n1Cc1ccc(-c2ccccc2)cc1", "Potency": "inconclusive [inhibitor, single point]"},
      {"smiles": "O=C(c1ccccc1Br)N1CCN(c2ccccn2)CC1", "activity change, negative = growth inhibition": "inactive: 23.6%"},
      {"smiles": "CCOc1ccccc1-n1nnc(-c2nc(-c3ccccc3)no2)c1N", "activity change, negative = growth inhibition": "inactive: 1.47%"},
      {"smiles": "CC1=NN(c2ccc(F)cc2)C(=O)C1C(c1cccc(O)c1)c1c(C)[nH]n(-c2ccc(F)cc2)c1=O", "note": "(centres undefined)", "Potency": "inconclusive [inhibitor, single point]"},
      {"smiles": "Cc1cccc(CC2C(=O)Nc3ccccc32)c1", "note": "(centres undefined)", "Potency": "inconclusive [inhibitor, single point]"},
      {"smiles": "CC(C)(Cc1nc2ccccc2[nH]1)c1nc2ccccc2[nH]1", "Potency": "inconclusive [inhibitor, single point]"},
      {"smiles": "CCOc1ccc(C2=NC(c3cccs3)=Nc3ccc(C(C)C)cc3N2)cc1", "Potency": "inconclusive [inhibitor, single point]"},
      {"smiles": "COc1ccc(C(=O)Oc2cccnc2)cc1OC", "activity change, negative = growth inhibition": "inactive: -0.176%"},
      {"smiles": "O=C(c1ccc(Cl)cc1)C1CCN(C(=O)c2ccccc2F)CC1", "activity change, negative = growth inhibition": "inactive: -23.6%"},
      {"smiles": "COc1ccc(S(=O)(=O)N(CCc2ccccc2)CC(=O)Nc2cccc(OC)c2)cc1", "Potency": "inconclusive [inhibitor, single point]"},
      {"smiles": "CCOc1ccc2nc(N3CCC(C(=O)N4CCN(C(=O)c5ccco5)CC4)CC3)sc2c1", "Potency": "inconclusive [inhibitor, single point]"},
      {"smiles": "CN1CCN(c2nc3ccccn3c(=O)c2C=C(C#N)C#N)CC1", "activity change, negative = growth inhibition": "inactive: -18.9%"},
      {"smiles": "CCOC(=O)c1cccc(NC(=O)C2CCN(S(=O)(=O)c3ccc4c(c3)oc(=O)n4C)CC2)c1", "Potency": "inconclusive [inhibitor, partial curve]"},
      {"smiles": "CCCc1cc(-c2n[nH]c(=S)n2CC(C)C)cs1", "Potency": "inconclusive [inhibitor, single point]"},
      {"smiles": "COc1cccc(C(=O)N(Cc2cc3cc(C)ccc3[nH]c2=O)CC2CCCO2)c1", "note": "(centres undefined)", "Potency": "inconclusive [inhibitor, single point]"},
      {"smiles": "Oc1ccc(NC(=S)Nc2ccc(F)cc2)cc1", "activity change, negative = growth inhibition": "inactive: 0.125%"},
      {"smiles": "CCOc1ccc(NC(=O)C2=NN(c3ccccc3)C(=O)CC2)cc1S(=O)(=O)N1CCCCC1", "Potency": "inconclusive [inhibitor, single point]"},
      {"smiles": "Cc1ccc(C(C)C)cc1-n1nnc(-c2cccc(Cc3ccc4ccccc4c3)c2)c1C(C)O", "note": "(centres undefined)", "Potency": "inconclusive [inhibitor, single point]"}
    ]}
  ]
}
